# Results: article PMC4336329 (PLoS ONE, 2015)
# About 2,200 (0.71%) of roughly 310,000 compounds showed an effect of 50% or more. The effect is printed as a negative number. This is one part of the list.
# Target: human ether-à-go-go-related gene (hERG) potassium channel (human, UniProt Q12809)
# Experiment: primary screen, population patch clamp on CHO cells stably expressing hERG
# human ether-à-go-go-related gene (hERG) potassium channel, sequence (Q12809 whole entry, looked up): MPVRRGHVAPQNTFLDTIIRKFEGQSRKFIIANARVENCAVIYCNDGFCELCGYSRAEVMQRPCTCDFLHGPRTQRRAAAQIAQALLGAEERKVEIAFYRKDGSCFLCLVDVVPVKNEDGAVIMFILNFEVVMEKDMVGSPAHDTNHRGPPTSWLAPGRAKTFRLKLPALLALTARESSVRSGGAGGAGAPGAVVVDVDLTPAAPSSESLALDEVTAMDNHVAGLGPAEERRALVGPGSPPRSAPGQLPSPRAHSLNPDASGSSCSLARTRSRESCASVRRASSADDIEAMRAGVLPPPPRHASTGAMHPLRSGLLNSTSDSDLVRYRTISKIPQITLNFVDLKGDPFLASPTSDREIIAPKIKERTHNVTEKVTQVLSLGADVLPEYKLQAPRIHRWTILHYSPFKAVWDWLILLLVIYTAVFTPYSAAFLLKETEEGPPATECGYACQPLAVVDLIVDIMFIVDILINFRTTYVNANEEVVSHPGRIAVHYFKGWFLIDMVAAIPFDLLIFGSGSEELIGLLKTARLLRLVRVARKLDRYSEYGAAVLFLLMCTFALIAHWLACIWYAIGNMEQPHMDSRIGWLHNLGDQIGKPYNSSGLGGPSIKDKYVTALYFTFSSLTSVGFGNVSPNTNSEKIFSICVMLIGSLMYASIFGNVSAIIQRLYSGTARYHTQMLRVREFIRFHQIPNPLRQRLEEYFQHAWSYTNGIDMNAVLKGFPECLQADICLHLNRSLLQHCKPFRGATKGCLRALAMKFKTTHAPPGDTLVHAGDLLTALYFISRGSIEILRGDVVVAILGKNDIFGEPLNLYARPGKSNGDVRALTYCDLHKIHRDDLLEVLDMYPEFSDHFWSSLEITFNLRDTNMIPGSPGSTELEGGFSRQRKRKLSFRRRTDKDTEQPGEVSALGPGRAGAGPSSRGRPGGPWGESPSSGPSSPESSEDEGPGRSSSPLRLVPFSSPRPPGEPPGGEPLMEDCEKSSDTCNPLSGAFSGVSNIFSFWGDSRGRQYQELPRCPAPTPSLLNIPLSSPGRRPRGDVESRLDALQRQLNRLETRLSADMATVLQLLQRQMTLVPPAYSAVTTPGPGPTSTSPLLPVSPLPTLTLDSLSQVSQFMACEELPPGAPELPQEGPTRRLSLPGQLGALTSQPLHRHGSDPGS
row,SMILES,"hERG current change (%, negative = inhibition) at 1uM [%]"
1,CCSc1ccccc1C(=O)NCc1ccc(S(N)(=O)=O)cc1,4.41
2,CC(C)NC(=O)NNC(=O)Cn1nnc(-c2cccc(Cl)c2Cl)n1,13.5
3,Cc1ccccc1-n1cnnc1SCC(=O)Nc1cccnc1Cl,10.1
4,Cn1cccc1/C=C1\SC(=Nc2ccc(O)cc2)NC1=O,-0.0487
5,Cl.OC(COc1ccc2c(c1)OCO2)CN1CCc2ccccc2C1 (stereo not shown),-19
6,CC(C)=CCc1c(O)c(CC=C(C)C)c2c(c1O)C(=O)CC(c1ccc(O)cc1)O2 (stereo not shown),11.5
7,C=CCNC(=O)/C(=C/c1ccc(Br)cc1)NC(=O)c1ccccc1OC,-15.5
8,CC(C)c1ccccc1OCC(=O)N1CCCN(C)CC1,-13
9,COc1ccc(NC(=O)CC2(CC(=O)N3CCOCC3)CCCC2)cc1Cl,-4.37
10,COC(=O)C1=C(c2ccc3ccccc3c2)C[C@@H]2CC[C@H]1N2C(=O)N1CCC(O)CC1,9.93
11,O=C(O)CCCN1C(=O)C2C3CCC(O3)C2C1=O (stereo not shown),12.1
12,O=C(Cc1n[nH]c(=O)c2ccccc12)N1CCN(c2ccc(F)cc2)CC1,-4.24
13,CCOC(=O)C1CCN(C(=O)Cc2c(C(=O)O)n(C)c3ccccc23)CC1,2.08
14,Cc1nnsc1C(=O)NCc1c(F)cccc1Cl,12.3
15,CCOc1ccc(NC(=O)/C(=C\c2ccc(OC(C)=O)c(OC)c2)NC(C)=O)cc1,10.8
16,O=C(N/N=C/c1ccco1)C(O)C(O)C(=O)N/N=C/c1ccco1 (stereo not shown),15.8
17,CCCCC#Cc1ccc(C(=O)NNC(=O)Nc2cc(Cl)cc(Cl)c2)o1,7.86
18,COc1cc(/C=C2\SC(=Nc3ccccc3)N(CCc3c[nH]c4ccccc34)C2=O)ccc1OC(C)C(=O)O (stereo not shown),16.6
19,Cc1c(CN(C)C(=O)c2ccc(Br)o2)cnn1C,3.38
20,CCCN(CCC)Cc1c(C(=O)N/N=C/c2ccncc2)nnn1-c1nonc1N,-30.7
21,CC(C)(C)c1ccc(OCc2ccc(C(=O)N3CCOCC3)o2)cc1,2.68
22,Cc1c(C(=O)NC2CCOC2)oc2c(F)cccc12 (stereo not shown),54
23,O=C(CN1C(=O)CCS(=O)(=O)c2ccccc21)Nc1cccc(Cl)c1,1.59
24,O=C(CN1C(=O)C2CC=C(Cl)CC2C1=O)Nc1ccc(C(=O)O)cc1 (stereo not shown),5.85
25,Cc1onc(C(=O)NN)c1-c1csc(COc2ccccc2)n1,4.25
